Assay results reported in the supplement of paper PMC10126150.
Values marked as one replicate rest on one cluster of the flow cell; about a third of the high ones do not repeat.

tested on: ATP; assay: switch fluorescence ratio, 500 uM ATP over buffer (Cy3 cluster intensity, sum of 5 cycles each) (fold (ratio)); higher = stronger signal-on switching upon ATP binding; sequences stand for … in TCGTCGGCAGCGTCAGATGTGTATAAGAGACAGTTTTTTTTTTTTTTTTTTTTTTTTT…TC; settings: aptamer strand: ATP DNA aptamer (quencher-CACCTGGGGGAGTATTGCGGAGGAAGG + anchor), 100 nM annealed; ATP concentration: 500 uM; one replicate
How it was run: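 The quencher-labelled ATP aptamer, at 100 nM, was annealed to Cy3-labelled switching-strand clusters on a modified Illumina MiSeq flow-cell. The clusters were imaged in selection buffer, then after 15 min with 500 uM ATP at 22 °C, and this buffer/ATP cycle ran five times with NaOH stripping and re-annealing between runs. Per-cluster fluorescence ratios, summed target-cycle over summed buffer-cycle Cy3 intensity, were averaged per switch-domain sequence. Clusters outside 100-1000 RFU were excluded.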
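Also: ATP exposure 15 min at 22 °C before imaging.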

Sequence	switch fluorescence ratio
TACAGGACT	1.1
TACAGGGATA	0.99
TACAGGTCCG	1
TACAGGTGCG	1.44
TACAGTGAAC	0.992
TACAGTGAGT	0.99
TACAGTTGTT	1.03
TACATCCTTC	1.11
TACATGAGAG	0.986
TACATGTATT	1.03
TACATGTTAC	1.13
TACATTGGAG	0.989
TACCAACAT	1.16
TACCACGCAA	4.62
TACCACGCTG	1.12
TACCAGGTTA	1.09
TACCAGTTAT	0.963
TACCATACCA	1.26
TACCATTTG	1.01
TACCCCGGTG	2.26
TACCCTTGAT	1.01
TACCCTTTTC	1.05
TACCGAGCCA	1.13
TACCGCCGAA	1.02
TACCGCCGGG	1.04
TACCGGAC	1.86

Sequence	switch fluorescence ratio
TACCGGCACA	1.25
TACCGGTTCA	0.97
TACCGTGTGT	1.02
TACCGTTGAC	1.11
TACCGTTGGT	0.972
TACCTAGTAT	0.977
TACCTCATAT	1.08
TACCTCGACA	1.15
TACCTGGATT	0.988
TACCTGGCTG	1.03
TACCTGTGCT	1.01
TACCTTACAG	1.37
TACCTTCATT	1.19
TACCTTTGAC	1.12
TACGAAAAAA	1.18
TACGAACAT	1.39
TACGAAGTGT	0.962
TACGAGATTT	1.02
TACGAGGCT	1.14
TACGATGGGA	1.01
TACGATTGGG	0.971
TACGCATAA	2.27
TACGCCCGCC	1.27
TACGCGCACT	1.16
TACGCTCCGC	1.31
TACGCTTC	1.02

Sequence	switch fluorescence ratio
TACGGACACT	1.3
TACGGAGTTC	1.01
TACGGCACTG	1.67
TACGGGAAAG	1.06
TACGGGAGGT	1.03
TACGTAACGA	1.37
TACGTCCACT	1.45
TACGTGGTAC	2.57
TACGTGTA	1.04
TACGTTGGG	0.966
TACTAAATTT	0.987
TACTAACCTA	1.12
TACTACTTAA	1.04
TACTAGCCG	1.1
TACTAGTTG	0.992
TACTATGAT	1.02
TACTATGG	1.01
TACTCAATGA	1.04
TACTCGCTCG	1.02
TACTCGGAGG	1.02
TACTGCGCGC	1.09
TACTGGATTT	0.984
TACTGGGGG	1.01
TACTGGTCGG	0.974
TACTGGTTAG	0.966
TACTGTTCAC	1.05

Sequence	switch fluorescence ratio
TACTTAAAGA	1.03
TACTTATTG	0.993
TACTTGACCC	1.26
TACTTGCAC	1.16
TACTTGCCTG	0.93
TACTTGCTCA	1.02
TACTTTAAGC	1.09
TAGAAGCTCA	1.03
TAGAAGTAAC	0.992
TAGAATCGAG	1.12
TAGAATTAGC	0.963
TAGAATTTAA	1
TAGACAATGG	0.921
TAGACACGAG	1.09
TAGACAGATT	0.964
TAGACATAT	1.02
TAGACGGAGC	1.07
TAGACGGCCA	1.04
TAGACTTTCT	1.02
TAGAGAGGTG	1.07
TAGAGCAGA	1.03
TAGAGCCCC	1.06
TAGAGCTATC	1.05
TAGAGGACGC	1.04
TAGAGGGGAC	0.957
TAGAGTACTC	1.01

Sequence	switch fluorescence ratio
TAGAGTCACC	1.02
TAGAGTTGGA	0.994
TAGATCAGCC	0.993
TAGATCTTAG	1.02
TAGATGAGTA	0.988
TAGATGCACC	1.06
TAGATGGGC	1.02
TAGATGTCGG	1
TAGATTAAA	0.992
TAGATTACCG	0.994
TAGATTCGCC	0.98
TAGATTTAGG	0.991
TAGCAAAATA	0.981
TAGCAATAT	1.09
TAGCAGACAC	1.53
TAGCAGGGGC	1.06
TAGCATTCGC	1.04
TAGCCACACA	1.02
TAGCCTGGTT	0.976
TAGCGACTT	0.984
TAGCGAGGCC	1.01
TAGCGATGTA	1.04
TAGCGGACGT	1.01
TAGCGGCCGA	1.03
TAGCGGTACT	3.34
TAGCGGTCTT	0.952

Sequence	switch fluorescence ratio
TAGCGTACT	1.22
TAGCGTTCCC	1.16
TAGCTAAGTG	1.02
TAGCTACCTG	1.07
TAGCTAGTTG	1.02
TAGCTCCACG	1.04
TAGCTCGAGG	1.03
TAGCTGATTC	0.985
TAGCTGGG	0.99
TAGCTGGGCT	0.997
TAGCTTCAT	0.999
TAGCTTTCCC	1.13
TAGGAACTTC	1.02
TAGGACTAAA	1.06
TAGGACTTTG	1.02
TAGGAGCT	0.98
TAGGATTGGA	1.03
TAGGCCCTAT	1.01
TAGGCCTGTT	0.989
TAGGCTGACA	1.02
TAGGGAACAC	2.08
TAGGGAACGA	1.03
TAGGGACACA	1.11
TAGGGATCA	1.01
TAGGGCAGT	0.997
TAGGGGACAC	0.952

Sequence	switch fluorescence ratio
TAGGGGTCTA	0.971
TAGGGTAATA	0.999
TAGGGTAGGC	0.985
TAGGGTAGGG	0.99
TAGGGTATTC	0.958
TAGGGTCAGA	0.985
TAGGGTGCTC	1.06
TAGGTAAGTA	0.99
TAGGTCACTG	0.979
TAGGTCGAAG	0.981
TAGGTGTACA	1.02
TAGGTTAGAC	0.978
TAGGTTCAGC	0.991
TAGGTTCTTA	1.03
TAGGTTGGTA	0.998
TAGTAACGGA	0.991
TAGTAACGGC	0.934
TAGTAGGGAC	0.995
TAGTATACCC	1.05
TAGTCAGCAG	1.05
TAGTCAGCAT	1.12
TAGTCATGGT	1.01
TAGTCATTTT	0.996
TAGTCCAGAG	0.974
TAGTCCATTC	0.927
TAGTCCTAAC	0.954

Sequence	switch fluorescence ratio
TAGTCGATAT	1.08
TAGTCGCACC	1.05
TAGTCGGCCC	1.01
TAGTCGGTT	1
TAGTCGTCAC	0.986
TAGTCTCGTT	1.02
TAGTCTGGA	1.03
TAGTCTTTCG	0.995
TAGTGAGCTT	1.05
TAGTGAGGTG	1.02
TAGTGGACAC	1.05
TAGTGGCCGG	0.945
TAGTGTCCAT	1.02
TAGTGTGAGA	1.02
TAGTTAGTGG	0.976
TAGTTATTGC	0.989
TAGTTCGCGT	1.09
TAGTTCTCAG	0.995
TAGTTGAGTA	0.966
